Among all 280,000 compounds or so, about 1,100 (0.39%) were called active. Inconclusive means that the source gave no clear call. Such entries were picked first, then a sample of the others. The call rests on the fitted dose curve; in most records, active means well fitted inhibition curve with a large enough effect; inconclusive means small, poorly fitted or top-dose-only effect, or effect the other way; inactive means flat fitted curve, though single readings scatter. Potencies of inconclusive entries are left out as doubtful fits.
These compounds were tested against Microtubule-associated protein tau (Homo sapiens) (UniProt P10636) (assay: qHTS for Inhibitors of Tau Fibril Formation, Fluorescence Polarization). Details: K18 P301L tau heparin fibrillization, Alexa594 FP, 6 h; series mostly up to 57.7 µM.
Chain of UniProt P10636 (P10636 whole entry, looked up): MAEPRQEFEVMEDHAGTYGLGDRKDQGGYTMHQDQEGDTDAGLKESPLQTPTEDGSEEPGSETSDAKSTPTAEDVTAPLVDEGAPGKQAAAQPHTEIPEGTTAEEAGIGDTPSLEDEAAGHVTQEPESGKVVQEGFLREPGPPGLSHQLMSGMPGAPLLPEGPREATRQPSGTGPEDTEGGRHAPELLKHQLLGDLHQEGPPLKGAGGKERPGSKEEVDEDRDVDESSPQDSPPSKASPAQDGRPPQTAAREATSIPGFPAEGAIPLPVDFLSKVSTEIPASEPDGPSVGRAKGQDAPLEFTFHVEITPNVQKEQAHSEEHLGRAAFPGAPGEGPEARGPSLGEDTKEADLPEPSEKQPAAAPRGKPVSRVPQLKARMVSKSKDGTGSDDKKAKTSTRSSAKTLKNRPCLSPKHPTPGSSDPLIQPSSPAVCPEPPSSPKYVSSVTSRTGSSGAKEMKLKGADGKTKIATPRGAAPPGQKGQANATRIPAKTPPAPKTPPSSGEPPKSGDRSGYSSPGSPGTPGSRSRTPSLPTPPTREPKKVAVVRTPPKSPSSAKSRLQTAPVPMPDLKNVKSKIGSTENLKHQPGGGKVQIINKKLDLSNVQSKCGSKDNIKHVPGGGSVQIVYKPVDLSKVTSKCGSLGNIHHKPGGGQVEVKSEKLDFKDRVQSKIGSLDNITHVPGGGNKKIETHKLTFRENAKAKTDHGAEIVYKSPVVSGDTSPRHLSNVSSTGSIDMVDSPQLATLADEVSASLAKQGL
Procedure, shortened: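 Recombinant K18 P301L […], labeled with Alexa 594 at 0.24 uM over 15 uM unlabeled; heparin inducer 20 uM final; 37 C, 6 hr; FP endpoint.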
Further: nearly all actives have a fitted effect of over 55% in size.
Potency means the concentration at half of the fitted maximal effect; tags describe the fitted curve by direction and shape.

Question: CCOc1cccc(C(=O)Nc2c(C(=O)c3ccc(OC)cc3)oc3ccccc23)c1 was tested. Which Potency did it give?
Answer: The Potency was inconclusive [inhibitor, partial curve, poor fit].

Question: For O=C(CC1N=C2c3ccccc3N=C(SCC(=O)Nc3cccc(Cl)c3)N2C1=O)NCc1cccs1 (stereo not given), which Potency is on record?
Answer: The Potency was “inactive”.

Question: Cc1cccc(Cn2c(=O)n(CCC(=O)NCc3ccc4c(c3)OCO4)c(=O)c3sccc32)c1 was tested. Which Potency did it give?
Answer: The Potency was “inactive”.

Question: For CCCCCCCCOC(=O)c1nc(Cl)c(Cl)c(N)c1Cl, which Potency is on record?
Answer: The Potency was inconclusive [inhibitor, partial curve].

Question: How did the Potency turn out when CCOc1cc2[nH]c(=S)n(CCN3CCCCC3C)c(=O)c2cc1OCC (stereo not given) was run?
Answer: Its Potency is inconclusive [inhibitor, partial curve].

Question: For CCc1ccc(NC(=O)c2ccc3c(c2)N(Cc2ccc(C)cc2)CCS3)cc1, which Potency is on record?
Answer: The Potency was “inactive”.

Question: With CCn1c(SCC(=O)Nc2ccc(C)cc2Br)nnc1-c1nonc1NC(C)=O as the compound, how does the Potency read?
Answer: Its Potency is “inactive”.

Question: For S=C(NN=C(C1CC1)C1CC1)Nc1ccccc1, which Potency is on record?
Answer: Its Potency is “inactive”.

Question: With COC(=O)/C(=C/c1ccco1)NC(=O)c1ccc(Br)o1 as the compound, how does the Potency read?
Answer: The Potency was “inactive”.

Question: Which Potency does the source give for Cc1cc2ccccc2n1CCNC(=O)C(C)Oc1ccccc1 (stereo not given) here?
Answer: Its Potency is inconclusive [inhibitor, single point].

Question: How did the Potency turn out when Nc1c(S(=O)(=O)c2cccs2)c2nc3ccccc3nc2n1Cc1cccs1 was run?
Answer: The Potency was inconclusive [inhibitor, partial curve].

Question: With CCOC(=O)c1sc(NC(=O)c2ccc(C)o2)nc1C as the compound, how does the Potency read?
Answer: The Potency was “inactive”.

Question: Which Potency does the source give for O=C(CN1CCC(N2CCCCC2)CC1)N1CCCc2ccccc21 here?
Answer: Its Potency is inconclusive [activator, single point].

Question: How did the Potency turn out when CCOc1ccc(NC(=O)CN2C(=O)S/C(=C/c3cccn3C)C2=O)cc1 was run?
Answer: Its Potency is inconclusive [inhibitor, single point].

Question: Which Potency does the source give for COc1cccc(C(=O)Nc2ccc3oc(-c4ccc5ccccc5c4)nc3c2)c1 here?
Answer: Its Potency is inconclusive [inhibitor, partial curve].

Question: Cn1c(Cn2nnc3ccccc32)nnc1SCC(=O)N1c2ccccc2CCc2ccccc21 was tested. Which Potency did it give?
Answer: Its Potency is “inactive”.

Question: For CC(C)(C)C1CC=C2C(C#N)=C(N)C(C#N)(C#N)C(c3cccs3)C2C1 (stereo not given), which Potency is on record?
Answer: The Potency was inconclusive [inhibitor, single point].

Question: Which Potency does the source give for CSc1nc(N2CCN(c3ccccc3)CC2)cc(N2CCN(c3ccccc3)CC2)n1 here?
Answer: Its Potency is inconclusive [activator, single point].

Question: Which Potency does the source give for Cc1cc(C)c(Nc2nn3c(=O)c4cc5c(cc4nc3s2)OCO5)c(C)c1 here?
Answer: The Potency was inconclusive [inhibitor, single point].

Question: Which Potency does the source give for Cc1ccc(SCc2[nH]nc3c2C(c2ccco2)C(C#N)=C(N)O3)cc1 (stereo not given) here?
Answer: The Potency was inconclusive [inhibitor, single point].
